Results reported in article PMC12251097.
Substitutions are numbered along the chain they refer to. Results are given in words; binding and its absence hold for the method and conditions named. Binding seen in cells or lysates may run through a third protein. Some binding calls cover weakened binding; strength is not graded here. For some assays here: Tags and fused reporters may be left off the sequences shown.

Sequences of proteins named here, by UniProt entry; tags and fusion partners are left off.
UniProt E9Q555: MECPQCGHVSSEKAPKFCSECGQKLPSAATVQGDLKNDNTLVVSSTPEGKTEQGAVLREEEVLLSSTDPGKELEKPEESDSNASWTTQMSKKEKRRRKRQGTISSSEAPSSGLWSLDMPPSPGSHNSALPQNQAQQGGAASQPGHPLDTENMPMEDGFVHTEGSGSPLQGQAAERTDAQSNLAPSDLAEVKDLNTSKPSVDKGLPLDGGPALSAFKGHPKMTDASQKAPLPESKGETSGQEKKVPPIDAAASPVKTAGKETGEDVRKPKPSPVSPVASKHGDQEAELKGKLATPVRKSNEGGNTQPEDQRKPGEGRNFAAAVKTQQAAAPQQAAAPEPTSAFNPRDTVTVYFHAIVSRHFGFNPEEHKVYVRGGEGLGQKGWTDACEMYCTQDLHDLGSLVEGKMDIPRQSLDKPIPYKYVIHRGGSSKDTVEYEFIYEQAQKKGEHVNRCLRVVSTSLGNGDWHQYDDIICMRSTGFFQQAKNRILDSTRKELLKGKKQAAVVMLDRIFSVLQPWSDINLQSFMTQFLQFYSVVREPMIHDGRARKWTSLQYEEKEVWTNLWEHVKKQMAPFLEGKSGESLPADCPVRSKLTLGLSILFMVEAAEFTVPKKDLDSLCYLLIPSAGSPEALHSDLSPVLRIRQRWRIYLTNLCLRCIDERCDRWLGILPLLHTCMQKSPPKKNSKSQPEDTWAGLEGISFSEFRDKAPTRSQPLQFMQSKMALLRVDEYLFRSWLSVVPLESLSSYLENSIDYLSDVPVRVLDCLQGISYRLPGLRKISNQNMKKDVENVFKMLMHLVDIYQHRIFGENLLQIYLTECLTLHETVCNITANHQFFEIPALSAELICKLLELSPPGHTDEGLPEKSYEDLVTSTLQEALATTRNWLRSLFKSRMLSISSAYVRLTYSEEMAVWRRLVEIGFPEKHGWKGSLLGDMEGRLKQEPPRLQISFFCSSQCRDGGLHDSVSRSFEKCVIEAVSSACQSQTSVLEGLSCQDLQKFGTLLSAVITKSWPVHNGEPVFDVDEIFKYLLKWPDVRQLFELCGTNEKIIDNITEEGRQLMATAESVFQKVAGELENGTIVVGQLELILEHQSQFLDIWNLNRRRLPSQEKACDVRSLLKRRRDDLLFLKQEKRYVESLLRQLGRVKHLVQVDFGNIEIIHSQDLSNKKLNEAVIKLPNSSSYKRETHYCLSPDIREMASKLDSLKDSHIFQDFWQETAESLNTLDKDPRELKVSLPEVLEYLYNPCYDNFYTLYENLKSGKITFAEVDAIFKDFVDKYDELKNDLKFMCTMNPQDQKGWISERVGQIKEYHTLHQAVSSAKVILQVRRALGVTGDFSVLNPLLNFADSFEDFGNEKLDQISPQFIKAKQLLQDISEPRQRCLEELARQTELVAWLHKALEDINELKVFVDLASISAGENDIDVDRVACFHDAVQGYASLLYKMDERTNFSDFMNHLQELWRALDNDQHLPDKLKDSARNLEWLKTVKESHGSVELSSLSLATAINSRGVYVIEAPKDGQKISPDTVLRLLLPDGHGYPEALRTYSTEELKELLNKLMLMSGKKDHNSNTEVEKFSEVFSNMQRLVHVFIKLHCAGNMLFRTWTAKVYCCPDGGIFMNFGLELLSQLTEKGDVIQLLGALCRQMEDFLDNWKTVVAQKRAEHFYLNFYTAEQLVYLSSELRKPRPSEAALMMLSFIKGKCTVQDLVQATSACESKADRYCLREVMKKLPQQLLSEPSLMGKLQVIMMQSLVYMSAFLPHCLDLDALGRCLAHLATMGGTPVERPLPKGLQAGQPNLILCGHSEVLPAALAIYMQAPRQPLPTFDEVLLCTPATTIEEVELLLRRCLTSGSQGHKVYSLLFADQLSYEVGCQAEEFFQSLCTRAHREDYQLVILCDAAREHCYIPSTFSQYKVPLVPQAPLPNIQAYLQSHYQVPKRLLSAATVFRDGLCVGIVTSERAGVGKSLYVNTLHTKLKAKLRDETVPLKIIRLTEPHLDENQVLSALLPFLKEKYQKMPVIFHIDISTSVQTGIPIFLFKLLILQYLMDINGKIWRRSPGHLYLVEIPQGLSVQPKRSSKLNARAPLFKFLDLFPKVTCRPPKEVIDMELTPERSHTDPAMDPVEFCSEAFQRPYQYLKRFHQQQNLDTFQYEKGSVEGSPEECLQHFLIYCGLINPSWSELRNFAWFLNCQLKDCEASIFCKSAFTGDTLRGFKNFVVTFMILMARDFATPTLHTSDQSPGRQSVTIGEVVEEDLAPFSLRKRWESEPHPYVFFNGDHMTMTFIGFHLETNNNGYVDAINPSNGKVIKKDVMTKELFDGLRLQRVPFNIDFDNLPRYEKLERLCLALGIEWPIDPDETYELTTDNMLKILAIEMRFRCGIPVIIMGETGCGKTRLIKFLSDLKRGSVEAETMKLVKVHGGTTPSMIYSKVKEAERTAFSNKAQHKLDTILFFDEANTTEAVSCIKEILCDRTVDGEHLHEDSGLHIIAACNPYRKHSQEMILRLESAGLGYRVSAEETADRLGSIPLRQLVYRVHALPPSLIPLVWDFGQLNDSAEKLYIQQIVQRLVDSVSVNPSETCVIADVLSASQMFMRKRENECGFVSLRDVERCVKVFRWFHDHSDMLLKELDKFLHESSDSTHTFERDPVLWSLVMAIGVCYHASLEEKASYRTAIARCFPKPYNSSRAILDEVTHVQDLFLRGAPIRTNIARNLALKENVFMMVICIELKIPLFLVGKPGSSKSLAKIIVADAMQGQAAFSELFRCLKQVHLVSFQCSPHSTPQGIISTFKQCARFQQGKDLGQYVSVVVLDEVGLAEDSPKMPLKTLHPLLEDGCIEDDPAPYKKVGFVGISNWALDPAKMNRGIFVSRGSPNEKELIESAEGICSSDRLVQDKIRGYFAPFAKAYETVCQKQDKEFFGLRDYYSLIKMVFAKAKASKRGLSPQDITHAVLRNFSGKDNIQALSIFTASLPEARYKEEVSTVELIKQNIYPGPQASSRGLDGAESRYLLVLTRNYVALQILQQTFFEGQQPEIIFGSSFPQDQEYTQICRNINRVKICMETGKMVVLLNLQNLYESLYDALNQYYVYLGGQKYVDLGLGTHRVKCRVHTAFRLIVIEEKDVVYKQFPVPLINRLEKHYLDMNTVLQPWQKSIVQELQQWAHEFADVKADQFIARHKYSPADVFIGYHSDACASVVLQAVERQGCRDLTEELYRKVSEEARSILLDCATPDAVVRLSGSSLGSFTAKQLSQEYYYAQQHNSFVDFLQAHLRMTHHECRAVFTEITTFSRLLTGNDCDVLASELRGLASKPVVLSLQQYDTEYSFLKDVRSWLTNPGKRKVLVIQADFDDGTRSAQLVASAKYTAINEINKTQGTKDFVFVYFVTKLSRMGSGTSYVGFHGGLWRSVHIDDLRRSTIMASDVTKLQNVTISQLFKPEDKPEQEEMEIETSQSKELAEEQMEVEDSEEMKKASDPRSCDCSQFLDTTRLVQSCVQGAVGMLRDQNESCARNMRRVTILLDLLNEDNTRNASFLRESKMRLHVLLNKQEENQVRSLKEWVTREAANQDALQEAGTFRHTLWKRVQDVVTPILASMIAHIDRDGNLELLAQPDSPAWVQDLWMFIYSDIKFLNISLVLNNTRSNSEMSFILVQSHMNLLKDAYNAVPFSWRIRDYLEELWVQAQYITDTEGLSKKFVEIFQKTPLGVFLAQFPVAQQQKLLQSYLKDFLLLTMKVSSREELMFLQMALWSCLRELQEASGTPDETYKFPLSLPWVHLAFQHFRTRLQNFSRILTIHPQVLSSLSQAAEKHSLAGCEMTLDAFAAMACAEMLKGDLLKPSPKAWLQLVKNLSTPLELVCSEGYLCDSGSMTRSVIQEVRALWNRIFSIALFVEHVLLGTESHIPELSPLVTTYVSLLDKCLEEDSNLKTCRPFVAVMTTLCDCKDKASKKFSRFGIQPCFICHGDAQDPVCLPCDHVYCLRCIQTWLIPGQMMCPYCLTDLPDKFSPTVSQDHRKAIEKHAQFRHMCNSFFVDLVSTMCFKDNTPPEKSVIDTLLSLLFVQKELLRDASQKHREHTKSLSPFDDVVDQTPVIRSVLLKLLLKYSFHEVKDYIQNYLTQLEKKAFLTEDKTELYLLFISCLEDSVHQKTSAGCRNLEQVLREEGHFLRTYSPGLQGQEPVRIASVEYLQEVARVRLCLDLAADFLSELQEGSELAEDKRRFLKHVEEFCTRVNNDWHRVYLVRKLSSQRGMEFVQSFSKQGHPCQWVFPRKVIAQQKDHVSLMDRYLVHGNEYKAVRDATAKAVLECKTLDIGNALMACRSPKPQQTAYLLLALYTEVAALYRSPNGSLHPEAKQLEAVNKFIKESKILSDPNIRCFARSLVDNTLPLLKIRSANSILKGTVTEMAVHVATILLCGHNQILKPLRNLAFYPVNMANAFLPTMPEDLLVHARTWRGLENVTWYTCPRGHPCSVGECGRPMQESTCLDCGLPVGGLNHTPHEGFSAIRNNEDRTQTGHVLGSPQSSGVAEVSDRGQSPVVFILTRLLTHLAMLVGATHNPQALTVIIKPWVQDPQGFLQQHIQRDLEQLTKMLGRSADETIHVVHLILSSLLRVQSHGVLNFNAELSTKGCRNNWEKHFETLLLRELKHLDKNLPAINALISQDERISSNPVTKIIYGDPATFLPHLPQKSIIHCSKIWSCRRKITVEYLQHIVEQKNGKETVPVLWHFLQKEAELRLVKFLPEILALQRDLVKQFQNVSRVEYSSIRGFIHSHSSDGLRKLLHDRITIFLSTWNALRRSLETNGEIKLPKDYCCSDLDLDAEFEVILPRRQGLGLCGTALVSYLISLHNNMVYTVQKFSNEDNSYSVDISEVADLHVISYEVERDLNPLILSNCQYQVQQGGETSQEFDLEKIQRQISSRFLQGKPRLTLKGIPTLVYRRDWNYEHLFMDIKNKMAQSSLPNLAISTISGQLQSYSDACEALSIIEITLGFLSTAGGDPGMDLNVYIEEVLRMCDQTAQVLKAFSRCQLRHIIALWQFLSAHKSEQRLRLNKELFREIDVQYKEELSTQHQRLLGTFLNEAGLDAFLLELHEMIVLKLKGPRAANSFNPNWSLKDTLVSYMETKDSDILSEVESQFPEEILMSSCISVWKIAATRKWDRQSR

Assays:
Myc-IRF3 = target: T1, Myc-IRF3 (UniProt P70671); experiment: co-IP; lysates of HEK293T cells co-transfected with V5-RNF213 and the tagged partner, collected 36 h after transfection; V5-RNF213 co-IP with the tagged partner; IP buffer 50 mM Tris-HCl pH 7.4, 2 mM EDTA, 150 mM NaCl, 1% NP-40, 10% glycerol, 1 mM DTT; protein A/G agarose and 5 μg antibody, 12 h at 4 °C
T1 sequence: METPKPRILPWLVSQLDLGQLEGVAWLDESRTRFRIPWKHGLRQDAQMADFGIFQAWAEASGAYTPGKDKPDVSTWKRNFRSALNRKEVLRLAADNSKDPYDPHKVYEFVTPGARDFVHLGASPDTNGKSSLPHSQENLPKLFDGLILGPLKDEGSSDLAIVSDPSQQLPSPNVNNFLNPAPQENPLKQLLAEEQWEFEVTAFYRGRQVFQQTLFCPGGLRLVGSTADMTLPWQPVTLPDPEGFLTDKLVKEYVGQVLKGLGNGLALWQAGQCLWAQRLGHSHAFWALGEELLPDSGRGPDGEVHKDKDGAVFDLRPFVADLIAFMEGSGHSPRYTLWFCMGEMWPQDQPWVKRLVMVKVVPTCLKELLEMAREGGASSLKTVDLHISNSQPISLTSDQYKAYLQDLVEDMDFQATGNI

[1] = target: T2, FLAG-TRAF3 (mouse, full length) (mouse) (UniProt Q60803); experiment: as above
T2 sequence: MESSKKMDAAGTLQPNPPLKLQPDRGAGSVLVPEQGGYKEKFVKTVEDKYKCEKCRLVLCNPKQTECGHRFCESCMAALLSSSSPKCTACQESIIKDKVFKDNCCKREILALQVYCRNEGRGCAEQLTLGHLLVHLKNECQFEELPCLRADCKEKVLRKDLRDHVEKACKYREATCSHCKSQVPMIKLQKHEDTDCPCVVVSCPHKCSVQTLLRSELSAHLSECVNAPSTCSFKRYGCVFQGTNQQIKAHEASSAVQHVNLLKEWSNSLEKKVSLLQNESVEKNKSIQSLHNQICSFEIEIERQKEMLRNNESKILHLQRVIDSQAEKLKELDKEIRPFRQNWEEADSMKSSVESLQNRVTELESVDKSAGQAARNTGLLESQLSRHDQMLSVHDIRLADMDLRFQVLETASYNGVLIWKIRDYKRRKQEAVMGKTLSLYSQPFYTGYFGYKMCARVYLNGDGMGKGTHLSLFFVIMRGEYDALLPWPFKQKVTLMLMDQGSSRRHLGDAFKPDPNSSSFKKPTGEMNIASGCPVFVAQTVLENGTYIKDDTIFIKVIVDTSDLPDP

Myc-TBK1 = target: T3, Myc-TBK1 (UniProt Q9WUN2); experiment: as above
T3 sequence: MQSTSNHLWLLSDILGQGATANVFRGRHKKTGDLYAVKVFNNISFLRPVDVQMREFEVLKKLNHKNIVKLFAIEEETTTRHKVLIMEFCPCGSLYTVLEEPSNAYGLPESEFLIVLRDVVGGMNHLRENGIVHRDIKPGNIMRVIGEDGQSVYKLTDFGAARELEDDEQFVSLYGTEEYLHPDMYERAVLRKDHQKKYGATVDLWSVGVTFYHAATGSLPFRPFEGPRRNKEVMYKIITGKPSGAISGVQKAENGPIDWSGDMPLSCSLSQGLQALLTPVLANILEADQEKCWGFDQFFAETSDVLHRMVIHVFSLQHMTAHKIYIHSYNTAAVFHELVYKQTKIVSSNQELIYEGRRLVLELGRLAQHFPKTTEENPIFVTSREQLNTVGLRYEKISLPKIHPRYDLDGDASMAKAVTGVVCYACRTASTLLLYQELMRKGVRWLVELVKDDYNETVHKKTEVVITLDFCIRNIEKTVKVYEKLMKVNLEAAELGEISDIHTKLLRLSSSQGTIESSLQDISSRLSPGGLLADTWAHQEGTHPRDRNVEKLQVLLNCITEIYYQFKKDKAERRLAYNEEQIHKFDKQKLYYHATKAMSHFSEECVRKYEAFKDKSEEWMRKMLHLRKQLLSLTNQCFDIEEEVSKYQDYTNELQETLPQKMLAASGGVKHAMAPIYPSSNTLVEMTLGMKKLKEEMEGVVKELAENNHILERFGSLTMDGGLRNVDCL

[2] = target: T4, FLAG-TRAF3 Q91A mutant (mouse) (mouse) (UniProt Q60803); experiment: as above
T4 sequence: T2 sequence with Q91A

HA-TRIF = target: T5, HA-TRIF (UniProt Q80UF7); experiment: as above
T5 sequence: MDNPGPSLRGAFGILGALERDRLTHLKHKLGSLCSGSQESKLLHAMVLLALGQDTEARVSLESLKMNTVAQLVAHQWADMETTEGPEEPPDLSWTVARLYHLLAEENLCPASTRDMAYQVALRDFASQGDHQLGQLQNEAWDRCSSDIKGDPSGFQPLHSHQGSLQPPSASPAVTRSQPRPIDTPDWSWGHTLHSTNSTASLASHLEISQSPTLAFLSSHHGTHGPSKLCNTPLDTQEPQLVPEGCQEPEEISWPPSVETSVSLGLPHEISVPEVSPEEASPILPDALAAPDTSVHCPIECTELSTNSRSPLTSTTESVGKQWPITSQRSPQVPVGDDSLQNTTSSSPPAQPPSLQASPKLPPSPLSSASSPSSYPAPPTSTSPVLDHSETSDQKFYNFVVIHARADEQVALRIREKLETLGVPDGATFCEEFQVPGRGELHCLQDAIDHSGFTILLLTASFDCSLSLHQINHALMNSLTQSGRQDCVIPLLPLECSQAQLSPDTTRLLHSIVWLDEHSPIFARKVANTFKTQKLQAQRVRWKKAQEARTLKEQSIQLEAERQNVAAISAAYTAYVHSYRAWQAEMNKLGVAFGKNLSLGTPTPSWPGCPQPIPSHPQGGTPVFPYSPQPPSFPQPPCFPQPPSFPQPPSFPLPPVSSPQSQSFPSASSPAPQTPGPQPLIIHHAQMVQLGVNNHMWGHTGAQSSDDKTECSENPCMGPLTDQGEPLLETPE

[3] = target: T6, endogenous TRAF3 (mouse skin fibroblasts) (mouse (endogenous in MSFs)) (UniProt Q60803); experiment: co-IP; endogenous proteins; immunoprecipitation with an anti-TRAF3 antibody from WT and Rnf213-/- MSFs with or without A. baumannii (50 MOI) infection for 3 hours; same IP buffer, 12 h at 4 °C
T6 sequence: T2 sequence

[4] = target: V5-RNF213 (mouse RING finger protein 213) (mouse) (UniProt E9Q555); experiment: co-IP; reciprocal: FLAG-TRAF3 co-IP with V5-RNF213 from lysates of transfected HEK293T cells; same IP buffer, 12 h at 4 °C
[5] = target: V5-RNF213 (mouse RING finger protein 213) (mouse) (UniProt E9Q555); experiment: co-IP; co-IP with anti-RNF213 antibody from lysates of HEK293T cells transfected with V5-RNF213 and full length or truncated FLAG-TRAF3; same IP buffer, 12 h at 4 °C

With “V5-RNF213 (mouse RING finger protein 213) (from UniProt E9Q555 1-5148) (enzyme)” the binding (Myc-IRF3) was “no binding”, the binding [1] was “binds” and the binding (Myc-TBK1) was “no binding”. The binding [2] was “no binding” and the binding (HA-TRIF) was “no binding”.

With “endogenous RNF213 (mouse skin fibroblasts) (from UniProt E9Q555 1-5148) (enzyme)” the binding [3] was “binds”.

B1: FLAG-TRAF3 (mouse, full length) (protein, UniProt Q60803 1-567)
chain: T2 sequence
With B1 the binding [4] was “binds” and the binding [5] was “binds”.
